Reference: PubChem BioAssay AID1865 (National Center for Advancing Translational Sciences (NCATS), 2009)
Hit rate of the full screen: of about 280,000 compounds, about 540 (0.19%) were called active. About 2% were inconclusive and are not listed. Calls follow the shape of the dose curve; as a rule, active = well fitted activation curve with a large enough effect; inconclusive = small, poorly fitted or top-dose-only effect; inactive = flat fitted curve, though single readings scatter. Only a part is listed here, and it is no random draw. The source holds several records for some structures; these can differ, active in one and inactive in another.

Assay: Quantitative High-Throughput Screen for Regulators of Epigenetic Control; also: nearly all actives have a fitted effect of over 60% in size; as to GFP activation: % of control where 0% means no effect
Conditions: murine LDR cells, GFP reporter derepression, 30 h; series mostly up to 53.9 µM; GFP activation: at the top concentration
Text: NIH Molecular Libraries Screening Centers Network [MLPCN] NIH Chemical Genomics Center [NCGC] MLSCN Grant: 1 X01 MH079860-01 Assay Provider: Elisabeth D. Martinez, University of Texas SW Medical Center NCGC Assay Overview: The Locus Derepression (LDR) assay detects the derepression or induction of a GFP reporter that is stably integrated in a genomic region of murine cells that is presumably silenced. Transcription of the GFP reporter is controlled by a CMV promoter, which normally is constitutively active. However, this cell line, termed LDR, was selected for lack of constitutive production of GFP. GFP production can be induced by incubating the cells with histone deacetylase or DNA methyltransferase inhibitors (Martinez et al., 2006). Compounds that derepress or induce this reporter locus are identified by enumerating GFP positive cells using a laser-scanning microplate cytometer (Auld et al., 2006). This assay was screened against the MLSMR earlier (AID 597; (Johnson et al., 2008) and has been rescreened here against the expanded collection.
NCGC Assay Protocol Summary: Three hundred LDR cells in 5 uL per well were dispensed into black, clear-bottom 1536-well plates. Twenty-three nL compound was transferred to the assay plate and cells were incubated 30 hours at 37 C. Medium was removed, cells were washed two times with PBS, and GFP-positive cells were enumerated as fluorescent objects between the sizes of 20 to 120 um width and depth using an Acumen Explorer. References Auld, DS, Johnson, RL, Zhang, YQ, Veith, H, Jadhav, A, Yasgar, A, Simeonov, A, Zheng, W, Martinez, ED, Westwick, JK, Austin, CP, Inglese, J (2006). Fluorescent protein-based cellular assays analyzed by laser-scanning microplate cytometry in 1536-well plate format. Methods Enzymol 414: 566-89. Johnson, RL, Huang, W, Jadhav, A, Austin, CP, Inglese, J, Martinez, ED (2008). A quantitative high-throughput screen identifies potential epigenetic modulators of gene expression. Anal Biochem 375: 237-48. Martinez, ED, Dull, AB, Beutler, JA, Hager, GL (2006). High-content fluorescence-based screening for epigenetic modulators. Methods Enzymol 414: 21-36.
Potency is read from the fitted curve at half-maximal effect.

Compound | GFP activation | Potency
COc1ccc(C2(CNC(=O)CCC(=O)O)CCCC2)cc1 | inactive: 1.28% | 
Cc1oc(-c2cccc(C(F)(F)F)c2)nc1CN1CCOCC1 |  | active: 11.2 µM
C=CCOc1ccc(/C(O)=C2\C(=O)C(=O)N(CCOC)C2c2cccnc2)cc1 (centres undefined) | inactive: -3.17% | 
CC(C)OC(=O)CN1C(=O)S/C(=C/c2ccc(N3CCCCC3)o2)C1=O |  | active: 11.2 µM
CCCCN(CCCNC(=O)CN1C(=O)COc2ccccc21)c1ccccc1 | inactive: 7.94% | 
COC(=O)c1ccc(C23CC4(C2)[C@H](CN(Cc2ccc(-c5ccccc5)cc2)[C@@H]4c2ccccc2)C3c2ccc(Cl)nc2)cc1 (some centres undefined) | inactive: 0.332% | 
COc1ccnc(CSC(N)=Nc2ccccc2OC)c1 |  | active: 3.55 µM
CCc1nnc(NC(=O)c2ccc(N3C(=O)CCC3=O)cc2)s1 | inactive: -1.01% | 
CCCCOCC(O)CN1CCN(C(C)=O)CC1 (centres undefined) | inactive: -1.05% | 
CCc1cc2c(nc1CC)CCN(CC/C(C)=N/O[C@@H](C)c1cc(-c3c(C)cc(C)cc3C)no1)C2 | inactive: 0% [at 10.1 µM] | 
O=C(Nc1ccc(N2CCOCC2)cc1)c1cc2ccccc2o1 | inactive: -5.77% | 
CCCC[C@@H]1C[C@H]1C(NC(=O)c1ccco1)c1ccc(Cl)cc1 (some centres undefined) | inactive: 5.32% | 
CC(NC(=O)c1cc2ccccc2o1)c1ccccc1 (centres undefined) |  | active: 15.8 µM
Cc1ccc2oc(=O)c3cnn(CC(=O)NCCC(C)C)c3c2c1 | inactive: 2.56% | 
C=C1C(=O)O[C@@H]2C3OC3(C)CC/C=C(\C)CC[C@@H]12 (some centres undefined) | inactive: 4.48% | 
CCN(CC)[C@@H](C)CN1c2ccccc2Sc2ccccc21 | inactive: -0.295% [at 16.9 µM] | 
O=C(/C=C\c1ccco1)Oc1cccc2cccnc12 | inactive: 8.48% | 
CCOCCCNC(=O)C(c1ccc(OC)cc1)N(Cc1cccs1)C(=O)CNC(C)=O (centres undefined) | inactive: -1.12% | 
CCOC(=O)N1CCN(c2c(NCCCOC(C)C)c(=O)c2=O)CC1 | inactive: -1.01% | 
CC12C(=O)OC(=O)C1(C)C1CCC2O1 (centres undefined) |  | inactive
CCOC(=O)c1ccc(NC(=O)CSc2nc(-c3ccc(F)cc3)cc(C(F)(F)F)c2C#N)cc1 |  | active: 7.08 µM
CCc1ccccc1NC(=O)c1cnn2c(C(F)(F)F)cc(-c3ccc(OC)c(OC)c3)nc12 |  | active: 12.6 µM

Compound | GFP activation | Potency
Cc1nc(SCCO)c2oc3ccccc3c2n1 | inactive: 2.58% | 
COc1cc(O)c(C(=O)/C=C/c2ccccc2)c(OC)c1 | inactive: 5.33% | 
CCCCOC(=O)c1cc2c(cn1)[nH]c1ccccc12 |  | inactive
O=C(COc1ccc(Cl)cc1Br)NNC(=O)C(=O)N1CCCCC1 | inactive: 0% | 
CC(=O)Nc1ccc(C2NC(=O)c3ccccc3O2)cc1 (centres undefined) | inactive: -8.77% | 
COc1cc(C(=O)Nc2ccc(N(C)C)cc2)cc(OC)c1OC | inactive: -5.48% | 
CC(=O)Nc1ccccc1NC(=O)CC(C)(C)C | inactive: 0% | 
COC(=O)[C@@H](NC(=O)NCc1ccccc1Cl)C(C)C | inactive: -11.1% | 
Cc1ccc2cc3c(N)c(C(=O)N4CCOCC4)sc3nc2c1 | inactive: -6.19% | 
O=C1c2c(O)ccc(O)c2C(=O)c2c(NCCNCCO)ccc(NCCNCCO)c21 |  | inactive
CCOc1ccc(C(=O)N2CCN(C(=O)c3ccco3)CC2)cc1OCC | inactive: -12.7% | 
CCn1c(C)cc(/C=C2\NC(=O)N(CC(=O)Nc3ccc(F)cc3)C2=O)c1C |  | active: 25.1 µM
C[C@@]12C(=O)OC(=O)[C@@]1(C)[C@@H]1CC[C@@H]2O1 | inactive: 2.6% | 
CC(C)OCc1cc(CN2CCN(c3ccccc3)CC2)c(O)c2ncccc12 |  | active: 2 µM
CCN(CC)S(=O)(=O)c1ccc2oc(SCc3ccc(F)cc3)nc2c1 | inactive: -19% | 
CCCCCCCCN[C@@H](C)[C@H](O)c1ccc(SC(C)C)cc1 | inactive: 1.37% [at 16.9 µM] | 
COc1cc(/C=C(\C#N)c2nc3ccccc3[nH]2)ccc1OC(=O)c1ccco1 | inactive: 8.96% | 
CN(C)c1ccc(/C=C2\C(=O)Nc3ccccc32)cc1 |  | inactive
CCOC(=O)COc1ccc(Br)cc1/C=C\c1[nH]c(=O)[nH]c(=O)c1[N+](=O)[O-] | inactive: 0% | 
OCc1ccc(-c2nn(Cc3ccccc3)c3ccccc23)o1 | inactive: -1.22% | 
CC(C)Cn1c(SCC(=O)c2ccc(Cl)s2)nnc1-c1ccco1 | inactive: 4.41% | 
CC(C)N1CCc2c(sc(NC(=O)c3cc(-c4cccs4)nc4ccccc34)c2C(N)=O)C1 |  | active: 17.8 µM

Compound | GFP activation | Potency
COC(=O)c1ccc(N2C(=O)CC(N3CCN(C(=O)c4ccco4)CC3)C2=O)cc1 (centres undefined) | inactive: -14.3% | 
Cc1nc(CSc2nsc(/C=C/N(C)C)c2C#N)cs1 |  | active: 6.31 µM
CC(C)N(CCC(=O)c1ccc2ccccc2c1)Cc1ccccc1 | inactive: 9.46% | 
Cc1cc2ccccc2n2c(SCC(=O)N3CCN(C(=O)c4ccco4)CC3)nnc12 | inactive: 14.7% | 
C[C@@H]1OC2C3=C(C(=O)[C@H]4O[C@@H]4[C@H]3O)[C@@H]1[C@H]1[C@H](C)OC=C3[C@H](O)[C@H]4O[C@H]4/C(=N\OCc4ccccc4)[C@@]321 | inactive: 4.24% [at 10.1 µM] | 
CCCCCCc1cc2cc(-c3nnc(-c4ccc(C)cc4)o3)c(=O)oc2cc1O |  | active: 2.24 µM
CCCCc1[nH]c(=O)c(C#N)c2c1CSC(C)(C)C2 | inactive: -4.84% | 
Nc1c(N2CCCC2)cc(Cl)c2nonc12 | inactive: -6.59% | 
CC(=Nc1ccccc1)c1sc2ccccc2c1O | inactive: 1.28% | 
COc1ccc2c(C=Nc3c(C)n(C)n(-c4ccccc4)c3=O)c(O)n(Cc3ccco3)c(=O)c2c1 | inactive: -1.08% | 
COC(=O)[C@H]1C(OC)[C@@H](OC(=O)c2cc(OC)c(OC)c(OC)c2)C[C@@H]2CN3CCc4c([nH]c5cc(OC)ccc45)[C@H]3C[C@H]21 (some centres undefined) | inactive: 7.41% | 
CCOC(=O)c1c(NC(=O)CC2Nc3cc(C)c(C)cc3NC2=O)sc(C)c1C (centres undefined) |  | active: 8.91 µM
CCN(CC)c1ccc2nc3c(=O)n(C)c(=O)n(C)c3nc2c1 |  | active: 12.6 µM
CN1CCN(C(=O)c2cc3c(ccc4ccccc43)oc2=O)CC1 | inactive: -7.55% | 
CS(=O)(=O)N1CCN(C(=O)c2c(F)cccc2F)CC1 | inactive: 0% | 
COc1ccccc1NC(=O)c1ccc(S(=O)(=O)N(C)C)cc1 | inactive: -0.901% | 
O=C1S/C(=C/c2ccc(N3CCOCC3)o2)C(=O)N1Cc1c(F)cccc1Cl |  | active: 2.51 µM
CC(c1ccccc1)C1C(C#N)=C(N)SC(N)=C1C#N (centres undefined) | inactive: -1.75% | 
CCCCCCCCNC(C)C(O)c1ccc(SC(C)C)cc1 (centres undefined) | inactive: 1.33% | 
O=C(NCc1ccccc1Cl)c1ccc(Nc2nc3ccccc3n3nnnc23)cc1 |  | active: 10 µM
